# According to the supplement of paper PMC8728848:
# The other results are listed elsewhere or left out.
# B1: Cohesin-hLangerin (Homo sapiens) (protein)
# chain: LDDLDAVRIKVDTVNAKPGDTVRIPVRFSGIPSKGIANCDFVYSYDPNVLEIIEIEPGDIIVDPNPDKSFDTAVYPDRKIIVFLFAEDSGTGAYAITKDGVFATIVAKVKEGAPNGLSVIKFVEVGGFANNDLVEQKTQFFDGGANVGDTTEPATPTTPVTTPTTTDDLDAASYPRFMGTISDVKTNVQLLKGRVDNISTLDSEIKKNSDGMEAAGVQIQMVNESLGYVRSQFLKLKTSVEKANAQIQILTRSWEEVSTLNAQIPELKSDLEKASALNTKIRALQGSLENMSKLLKRQNDILQVVSQGWKYFKGNFYYFSLIPKTWYSAEQFCVSRNSHLTSVTSESEQEFLYKTAGGLIYWIGLTKAGMEGDWSWVDDTPFNKVQSARFWIPGEPNNAGNNEHCGNIKAPSLQAWNDAPCDKTFLFICKRPYVPSEPHHHHHH
# How the values were obtained:
# [1] = target: Neu5Gc(a2-8)Neu5Gc(a2-6)Gal(b1-4)GlcNAc; experiment: glycan array binding signal (z-score within array); higher = stronger binding; conditions: glycan notation: IUPAC condensed, linker removed
# Procedure, shortened: (§1)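 The binding signal is a Z-score computed within each array and averaged over linkers. Arrays of the same protein sequence at different concentrations or buffers were also averaged together. Data originate from 3228 arrays in the Consortium for Functional Glycomics database, kept only where the protein sequence was available.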
# [2] = target: Neu5Gc(b2-6)Gal(b1-4)GlcNAc; experiment: as above; conditions: glycan notation: IUPAC condensed, linker removed
# Procedure, shortened: as §1
binder,measurement,setting,value
B1,glycan array binding signal (z-score),[1],-0.412
same,glycan array binding signal (z-score),[2],-0.42
